# Results as given in the supplement of paper PMC8728848.
# The list shows a part of the results.
# Tests used:
# Test in all cases: glycan array binding signal (z-score within array); higher = stronger binding
# Conditions in all cases: glycan notation: IUPAC condensed, linker removed
# Gal(b1-4)Glc = target: Gal(b1-4)Glc
# How it was run: (§1)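 Glycan array data came from 3228 arrays in the Consortium for Functional Glycomics database, and only arrays with an available protein sequence were kept. Glycan names were put into IUPAC-condensed notation, and columns mapping to the same glycan were averaged. The binding signal is a within-array Z-score, averaged across arrays of one protein sequence run at different concentrations or buffers and across linkers. A negative Z-score can be read as non-binding.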
# Gal(b1-4)Glc6S = target: Gal(b1-4)Glc6S
# How it was run: as §1
# Gal(b1-4)GlcNAc = target: Gal(b1-4)GlcNAc
# How it was run: as §1
# [1] = target: Gal(b1-4)GlcNAc(a1-6)Gal(b1-4)GlcNAc
# How it was run: as §1
# Gal(b1-4)GlcNAc(b1-2)Man = target: Gal(b1-4)GlcNAc(b1-2)Man
# How it was run: as §1
# [2] = target: Gal(b1-4)GlcNAc(b1-2)Man(a1-3)Man(b1-4)GlcNAc(b1-4)GlcNAc
# How it was run: as §1
# [3] = target: Gal(b1-4)GlcNAc(b1-2)Man(a1-3)[Gal(b1-4)GlcNAc(b1-2)Man(a1-6)]Man(b1-4)GlcNAc(b1-4)GlcNAc
# How it was run: as §1
# [4] = target: Gal(b1-4)GlcNAc(b1-2)Man(a1-3)[Gal(b1-4)GlcNAc(b1-2)Man(a1-6)]Man(b1-4)GlcNAc(b1-4)[Fuc(a1-6)]GlcNAc
# How it was run: as §1
# [5] = target: Gal(b1-4)GlcNAc(b1-2)Man(a1-3)[Gal(b1-4)GlcNAc(b1-2)Man(a1-6)][Gal(b1-4)GlcNAc(b1-4)]Man(b1-4)GlcNAc(b1-4)[Fuc(a1-6)]GlcNAc
# How it was run: as §1
# [6] = target: Gal(b1-4)GlcNAc(b1-2)Man(a1-3)[Gal(b1-4)GlcNAc(b1-2)Man(a1-6)][GlcNAc(b1-4)]Man(b1-4)GlcNAc(b1-4)[Fuc(a1-6)]GlcNAc
# How it was run: as §1
# [7] = target: Gal(b1-4)GlcNAc(b1-2)Man(a1-3)[GlcNAc(b1-2)Man(a1-6)]Man(b1-4)GlcNAc(b1-4)GlcNAc
# How it was run: as §1
# [8] = target: Gal(b1-4)GlcNAc(b1-2)Man(a1-3)[GlcNAc(b1-4)][Gal(b1-4)GlcNAc(b1-2)Man(a1-6)]Man(b1-4)GlcNAc(b1-4)GlcNAc
# How it was run: as §1
# [9] = target: Gal(b1-4)GlcNAc(b1-2)Man(a1-3)[Man(a1-6)]Man(b1-4)GlcNAc(b1-4)GlcNAc
# How it was run: as §1
# [10] = target: Gal(b1-4)GlcNAc(b1-2)Man(a1-6)Man(b1-4)GlcNAc(b1-4)GlcNAc
# How it was run: as §1
# [11] = target: Gal(b1-4)GlcNAc(b1-2)Man(a1-6)[GlcNAc(b1-2)Man(a1-3)]Man(b1-4)GlcNAc(b1-4)GlcNAc
# How it was run: as §1
# [12] = target: Gal(b1-4)GlcNAc(b1-2)Man(a1-6)[Man(a1-3)]Man(b1-4)GlcNAc(b1-4)GlcNAc
# How it was run: as §1
# [13] = target: Gal(b1-4)GlcNAc(b1-2)[Gal(b1-4)GlcNAc(b1-4)]Man(a1-3)[Gal(b1-4)GlcNAc(b1-2)Man(a1-6)]Man(b1-4)GlcNAc(b1-4)GlcNAc
# How it was run: as §1
# [14] = target: Gal(b1-4)GlcNAc(b1-2)[Gal(b1-4)GlcNAc(b1-4)]Man(a1-3)[Gal(b1-4)GlcNAc(b1-2)[Gal(b1-4)GlcNAc(b1-6)]Man(a1-6)]Man(b1-4)GlcNAc(b1-4)GlcNAc
# How it was run: as §1
# [15] = target: Gal(b1-4)GlcNAc(b1-2)[Gal(b1-4)GlcNAc(b1-4)]Man(a1-3)[GlcNAc(b1-4)][Gal(b1-4)GlcNAc(b1-2)Man(a1-6)]Man(b1-4)GlcNAc(b1-4)GlcNAc
# How it was run: as §1
# [16] = target: Gal(b1-4)GlcNAc(b1-2)[Gal(b1-4)GlcNAc(b1-4)]Man(a1-3)[GlcNAc(b1-4)][Gal(b1-4)GlcNAc(b1-2)[Gal(b1-4)GlcNAc(b1-6)]Man(a1-6)]Man(b1-4)GlcNAc(b1-4)GlcNAc
# How it was run: as §1
# [17] = target: Gal(b1-4)GlcNAc(b1-2)[Gal(b1-4)GlcNAc(b1-6)]Man(a1-6)[Gal(b1-4)GlcNAc(b1-2)Man(a1-3)]Man(b1-4)GlcNAc(b1-4)GlcNAc
# How it was run: as §1
# [18] = target: Gal(b1-4)GlcNAc(b1-2)[Gal(b1-4)GlcNAc(b1-6)]Man(a1-6)[Gal(b1-4)GlcNAc(b1-2)Man(a1-3)]Man(b1-4)GlcNAc(b1-4)[Fuc(a1-6)]GlcNAc
# How it was run: as §1
binder,measurement,setting,value
SP16664D-bth-476-27-476 (Bacteroides thetaiotaomicron) (protein) DDLEVGKNIDESAYSGIYENNAYLRDGKSNLVSKVVELHGETYATTVKMGLSKTPNTATSAKVKIDAAYLETYNKAHNTDFALYPQDLVTFANEGILTVNANTKSAEVEMTIRAGEGLQEDKTYAIPVAISDQSSDITIKDEDAKHCIYLVKDMRNAGDAYKGEGVMQGYLFFEVNDVNPLNTLSFQLENGKLLWDVVVLFAANINYDAEAGRPRVQCNPNVQYLLDNNETLLQPLRRRGVKVLLGLLGNHDITGLAQLSEQGAKDFAREVAQYCKAYNLDGVNYDDEYSNSPDLSNPSLTNPSTAAAARLCYETKQAMPDKLVTVFDWGQMYGVATVDGVDAKEWIDIVVANYGSAAYPIGQMTKKQCSGISMEFNLGGGGSLSASKAQSMIDGGYGWFMGFAPSPAKYGSVFSRLQGGGEVLYGSNVAAPTIFYKKNDPTPYKYPDDL,glycan array binding signal (z-score),Gal(b1-4)Glc,-0.258
same,glycan array binding signal (z-score),Gal(b1-4)Glc6S,-0.023
same,glycan array binding signal (z-score),Gal(b1-4)GlcNAc,-0.242
same,glycan array binding signal (z-score),[1],-0.085
same,glycan array binding signal (z-score),Gal(b1-4)GlcNAc(b1-2)Man,0.174
same,glycan array binding signal (z-score),[2],0.63
same,glycan array binding signal (z-score),[3],-0.211
same,glycan array binding signal (z-score),[4],0.197
same,glycan array binding signal (z-score),[5],0.05
same,glycan array binding signal (z-score),[6],-0.015
same,glycan array binding signal (z-score),[7],-0.155
same,glycan array binding signal (z-score),[8],-0.2
same,glycan array binding signal (z-score),[9],-0.248
same,glycan array binding signal (z-score),[10],-0.067
same,glycan array binding signal (z-score),[11],-0.082
same,glycan array binding signal (z-score),[12],0.218
same,glycan array binding signal (z-score),[13],0.086
same,glycan array binding signal (z-score),[14],-0.383
same,glycan array binding signal (z-score),[15],-0.322
same,glycan array binding signal (z-score),[16],-0.399
same,glycan array binding signal (z-score),[17],-0.116
same,glycan array binding signal (z-score),[18],0.634
